The supplement of paper PMC6089552
Out of some 3,200 compounds screened, about 300 (9.4%) showed activity. Only a part is listed here, and it is no random draw.

System: A673/TR/shEF
Assay: cell viability (LOESS-normalised, relative to median of negative controls) (log2 ratio); higher = more viable cells (less compound effect), active = hit call of the paper (over 3 MAD below the median)
Conditions: treatment time: 72 h
Outline: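 A673/TR/shEF Ewing sarcoma cells (1,500 per well, 384-well plates) were grown with or without doxycycline to induce EWS-FLI1 shRNA knockdown, starting 24 h before compounds. Library compounds at two or more concentrations, with DMSO controls, were added for three days. Cell viability was read by CellTiter-Glo luminescence on an Envision reader, then LOESS-corrected per plate, divided by the median of negative controls and log2-transformed. Hits were wells at least three median absolute deviations from the median of all screened wells.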

[1] = 0.25 µM, library screen: screen1, EWS-FLI1 expression: high (no doxycycline)
[2] = 0.25 µM, library screen: screen1, EWS-FLI1 expression: low (doxycycline-induced shRNA knockdown)
[3] = 2.5 µM, library screen: screen1, EWS-FLI1 expression: high (no doxycycline)
[4] = 2.5 µM, library screen: screen1, EWS-FLI1 expression: low (doxycycline-induced shRNA knockdown)
[5] = 0.25 µM, library screen: screen2, EWS-FLI1 expression: high (no doxycycline)
[6] = 0.25 µM, library screen: screen2, EWS-FLI1 expression: low (doxycycline-induced shRNA knockdown)
[7] = 2.5 µM, library screen: screen2, EWS-FLI1 expression: high (no doxycycline)
[8] = 2.5 µM, library screen: screen2, EWS-FLI1 expression: low (doxycycline-induced shRNA knockdown)
[9] = 0.103 µM, library screen: screen3, EWS-FLI1 expression: high (no doxycycline)
[10] = 0.103 µM, library screen: screen3, EWS-FLI1 expression: low (doxycycline-induced shRNA knockdown)
[11] = 0.308 µM, library screen: screen3, EWS-FLI1 expression: high (no doxycycline)
[12] = 0.308 µM, library screen: screen3, EWS-FLI1 expression: low (doxycycline-induced shRNA knockdown)
[13] = 0.926 µM, library screen: screen3, EWS-FLI1 expression: high (no doxycycline)
[14] = 0.926 µM, library screen: screen3, EWS-FLI1 expression: low (doxycycline-induced shRNA knockdown)
[15] = 2.8 µM, library screen: screen3, EWS-FLI1 expression: high (no doxycycline)
[16] = 2.8 µM, library screen: screen3, EWS-FLI1 expression: low (doxycycline-induced shRNA knockdown)
[17] = 8.3 µM, library screen: screen3, EWS-FLI1 expression: high (no doxycycline)
[18] = 8.3 µM, library screen: screen3, EWS-FLI1 expression: low (doxycycline-induced shRNA knockdown)
[19] = 25 µM, library screen: screen3, EWS-FLI1 expression: high (no doxycycline)
[20] = 25 µM, library screen: screen3, EWS-FLI1 expression: low (doxycycline-induced shRNA knockdown)

Measured: cell viability (log2)

CC(C)(O)CC[C@@H](O)[C@@](C)(O)[C@H]1CC[C@@]2(O)C3=CC(=O)[C@@H]4C[C@@H](O)[C@@H](O)C[C@]4(C)[C@H]3CC[C@]12C
inactive: [1] 0.0407 | [2] 0.101 | [3] 0.0783 | [4] 0.0234

O=C(O)c1cccc(Nc2ccnc(Nc3cccc(C(=O)O)c3)n2)c1
inactive: [1] 0.0739 | [2] 0.0898 | [3] 0.0811 | [4] -0.00917

Cc1c(CC(C)(C)C(=O)O)n(Cc2ccc(Cl)cc2)c2ccc(F)cc12
inactive: [5] 0.164 | [6] 0.182 | [7] 0.109 | [8] 0.0488

O=C(O)c1cc(=O)c2c(OCC(O)COc3cccc4oc(C(=O)O)cc(=O)c34)cccc2o1
inactive: [1] 0.121 | [2] 0.152 | [3] 0.0934 | [4] 0.042

COC1=C(OC)C(=O)c2ccccc2C1=O
inactive: [5] 0.153 | [6] 0.0608 | [7] 0.12 | [8] 0.0758

COc1cc(O)c2c(=O)c(-c3ccc(O)cc3)coc2c1
inactive: [1] -0.0342 | [2] 0.0164 | [3] 0.131 | [4] 0.0327

CC(C)CCC[C@@H](C)[C@H]1CC[C@H]2[C@@H]3CC=C4C[C@@H](O)CC[C@]4(C)[C@H]3CC[C@]12C
inactive: [1] 0.151 | [2] 0.0665 | [3] 0.269 | [4] 0.267

CCCCCC1C(=O)CCC1CC(=O)O (stereo not drawn)
inactive: [1] 0.0024 | [2] -0.00904 | [3] 0.144 | [4] 0.0215

C[N+](C)(C)CCOP(=O)([O-])OP(=O)(O)OC[C@H]1O[C@@H](n2ccc(N)nc2=O)[C@H](O)[C@@H]1O
inactive: [5] 0.0983 | [6] 0.0319 | [7] 0.095 | [8] 0.0926

CN(C)CCC(c1ccccc1)c1ccccn1 (stereo not drawn)
inactive: [1] 0.0471 | [2] 0.119 | [3] 0.0893 | [4] 0.201

N=C(N=C(N)N)N1CCOCC1
inactive: [9] -0.021 | [10] 0.109 | [1] 0.0942 | [2] -0.0417 | [11] 0.127 | [12] 0.0816 | [13] 0.0691 | [14] 0.0387 | [3] 0.154 | [4] 0.0743 | [15] 0.107 | [16] 0.065 | [17] 0.132 | [18] 0.0337 | [19] 0.206 | [20] 0.0326

CCOc1cccc(=O)c2c(C)[nH]c(C)c12
inactive: [1] 0.0528 | [2] 0.134 | [3] 0.0744 | [4] 0.088

CC(=O)OCC(=O)[C@@]12OC3(CCCC3)O[C@@H]1C[C@H]1[C@@H]3CCC4=CC(=O)C=C[C@]4(C)[C@@]3(F)[C@@H](O)C[C@@]12C
inactive: [1] 0.0908 | [2] -0.224 | [3] 0.0907 | [4] -0.41

COc1cc2c(cc1OC)Cc1cc(OC)c(OC)cc1Cc1cc(OC)c(OC)cc1C2
inactive: [1] 0.0474 | [2] -0.00812 | [3] 0.0387 | [4] -0.0322

N[C@@H](CC(=O)N1CCn2c(nnc2C(F)(F)F)C1)Cc1cc(F)c(F)cc1F
inactive: [9] -0.0148 | [10] 0.000746 | [11] 0.0564 | [12] -0.0121 | [13] -0.00306 | [14] 0.0567 | [15] -0.0309 | [16] 0.0592 | [17] 0.0707 | [18] 0.0678 | [19] 0.0606 | [20] 0.0133

C[C@@H]1O[C@@H](O[C@H]2[C@H](Oc3cc(O)c4c(c3)O[C@H](c3ccc(O)cc3)CC4=O)O[C@H](CO)[C@@H](O)[C@@H]2O)[C@H](O)[C@H](O)[C@H]1O
inactive: [1] 0.0898 | [2] 0.112 | [3] 0.163 | [4] 0.0667

Cn1cc(C2=C(c3cn(CCCSC(=N)N)c4ccccc34)C(=O)NC2=O)c2ccccc21
active: [3] -1.27 | [4] -0.615 | 25 µM, library screen: screen1, EWS-FLI1 expression: high (no doxycycline) -4.25 | 25 µM, library screen: screen1, EWS-FLI1 expression: low (doxycycline-induced shRNA knockdown) -2.05
inactive: 0.025 µM, library screen: screen1, EWS-FLI1 expression: high (no doxycycline) 0.0502 | 0.025 µM, library screen: screen1, EWS-FLI1 expression: low (doxycycline-induced shRNA knockdown) 0.0613 | [1] -0.0731 | [2] 0.0259

COc1c(O)cc(O)cc1O
inactive: [1] 0.0746 | [2] 0.0275 | [3] 0.127 | [4] 0.0739

C[C@@H]1O[C@@H](OC[C@H]2O[C@@H](Oc3c(-c4ccc(O)c(O)c4)oc4cc(O)cc(O)c4c3=O)[C@H](O)[C@@H](O)[C@@H]2O)[C@H](O)[C@H](O)[C@H]1O
inactive: [1] 0.159 | [2] 0.0843 | [3] 0.198 | [4] 0.157

C[N+](C)(C)CCC(=O)c1cccc2ccccc12
active: [5] -0.0772 | [7] -0.524

CCCC(=O)Nc1ccc(OCC(O)CNC(C)C)c(C(C)=O)c1 (stereo not drawn)
inactive: [1] 0.193 | [2] 0.113 | [3] 0.223 | [4] 0.0993

CC(=O)Nc1ccc(OCC(O)CNC(C)C)cc1 (stereo not drawn)
inactive: [1] 0.0899 | [2] 0.029 | [3] 0.178 | [4] 0.0479

CCCc1nc2c(C)cc(-c3nc4ccccc4n3C)cc2n1Cc1ccc(-c2ccccc2C(=O)O)cc1
inactive: [9] 0.0602 | [10] 0.0241 | [11] 0.0666 | [12] 0.066 | [13] 0.0685 | [14] 0.0882 | [15] 0.0743 | [16] 0.102 | [17] 0.0605 | [18] 0.0251 | [19] 0.0281 | [20] 0.117

O=C(O)Cc1ccc(O)c(O)c1
inactive: [5] 0.133 | [6] -0.00472 | [7] 0.0419 | [8] 0.108

COCCCOc1cc(C[C@@H](C[C@H](N)[C@@H](O)C[C@H](C(=O)NCC(C)(C)C(N)=O)C(C)C)C(C)C)ccc1OC
inactive: [9] 0.0214 | [10] 0.0985 | [11] -0.0178 | [12] -0.0075 | [13] -0.0678 | [14] 0.0322 | [15] 0.038 | [16] 0.0311 | [17] -0.0195 | [18] 0.0975 | [19] 0.0665 | [20] -0.0124
